# Test results from PubChem BioAssay AID602342 (Broad Institute, 2012).
# The whole screen tested about 340,000 compounds, of which about 1,000 (0.29%) were called active. This list was built around the results that the source calls inconclusive (neither active nor inactive); the mix of calls is not that of the screen.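 The calls were made as follows: active = mean replicate activation score at least 90 and every replicate individually at or above 90; inconclusive = only one of the two criteria met; inactive = neither criterion met.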
# Assay: miR-122 Renilla sensor signal increase in Huh7, primary screen, miR-122 inhibitor project, cell-based, single point, plate reader (AID 602342);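 also: higher luciferase means less miR-122 activity so hits act as miR-122 inhibitors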
# Conditions: Huh7 miR-122 Renilla luciferase sensor, 48 h, hits give high values, neutral wells = 0, positive control = 100; at 12.5 µM unless noted
row,SMILES,activation (reporter increase)
1,C[C@H](CO)N1C[C@H](C)[C@@H](CN(C)Cc2ccc(C(F)(F)F)cc2)Oc2c(NC(=O)C3CCCCC3)cccc2C1=O,active: 122% [at 16.7 µM]
2,COc1cc(OC)c(-c2nc3cnccc3n2C)cc1OC,inconclusive: 94%
3,CC(=O)c1cccc(NC(=O)NCc2cccs2)c1,active: 103%
4,Cc1ccc(CN2CCSc3ccc(C(=O)NCc4ccco4)cc32)cc1,inconclusive: 99.5%
5,OC(c1ccc(Cl)c(F)c1)c1ncc(-c2ccccc2F)[nH]1 (stereo unspecified),inconclusive: 90.8%
6,COc1ccccc1S(=O)(=O)N1CC[C@@H]2[C@H]1c1cc(-c3cccc(C#N)c3)ccc1N[C@@H]2CO,inactive: -6.55% [at 16.7 µM]
7,CCCCC(O)(CCCC)C(=O)NN(C(=O)OC)c1ccccc1,active: 144%
8,Cc1ccc(C(C)C)cc1S(=O)(=O)NC1CC(C)(C)NC(C)(C)C1,inconclusive: 98.8%
9,COc1ccc(NC(=O)Nc2ccc3c(c2)CC(=O)N([C@@H](C)CO)C[C@@H](C)[C@H](CN(C)C(=O)NC(C)C)O3)cc1,active: 101% [at 16.7 µM]
10,COc1ccc(NC(=O)Nc2cccc3c2O[C@H](CN(C)C(=O)NC2CCCCC2)[C@H](C)CN([C@@H](C)CO)C3=O)cc1,inactive: -0.465% [at 16.7 µM]
11,COC(=O)c1ccccc1NC(=O)Cn1c(-c2nonc2N)nc2ccccc21,inconclusive: 104%
12,O=S(=O)(c1ccccc1)N(CC(O)COc1ccccc1)c1ccccc1 (stereo unspecified),active: 131%
13,C[C@H]1CN([C@@H](C)CO)S(=O)(=O)c2ccc(C#CCN(C)C)cc2O[C@H]1CN(C)C(=O)C1CCC1,inactive: 0.527% [at 16.7 µM]
14,CCC(=O)N(C)C[C@@H]1Oc2ncc(Br)cc2C(=O)N([C@H](C)CO)C[C@@H]1C,inactive: 2.5% [at 16.7 µM]
15,CCN(C[C@@H]1[C@@H](c2ccccc2)[C@@H](CO)N1C(=O)COC)S(C)(=O)=O,inconclusive: 91.7% [at 16.7 µM]
16,FC(F)(F)c1cccc(NC(=S)Nc2ccc(Cl)c(Cl)c2)c1,inactive: -6.14%
17,C[C@@H]1CN([C@H](C)CO)C(=O)c2cc(C#CC3CCCC3)cnc2O[C@H]1CN(C)C(=O)Cc1ccccn1,inactive: -10.5% [at 16.7 µM]
18,COc1ccc(NS(=O)(=O)c2cc(NC(=O)Cc3c(F)cccc3Cl)ccc2OC)cc1,inconclusive: 105%
19,C[C@@H]1CN([C@@H](C)CO)C(=O)c2cc(N(C)C)ccc2O[C@H]1CN(C)Cc1ccc(C(=O)Nc2ccccc2N)cc1,inconclusive: 94.7% [at 16.7 µM]
20,O=C(NC[C@H]1N[C@H](CO)[C@H]1c1ccccc1)c1ccccc1F,inconclusive: 108% [at 16.7 µM]
21,Cc1nc(Nc2nc(CSc3nc4ccccc4[nH]3)cc(=O)[nH]2)nc2ccccc12,inconclusive: 602%
22,Cc1noc(C)c1NC(=O)Nc1ccc2c(c1)C(=O)N([C@H](C)CO)C[C@@H](C)[C@H](CN(C)Cc1ccc(C(F)(F)F)cc1)OCCCC[C@H](C)O2,inactive: 0.831% [at 16.7 µM]
23,Cc1ccc(S(=O)(=O)Nc2cccc(-c3ccc4nncn4n3)c2)cc1,inconclusive: 107%

row,SMILES,activation (reporter increase)
1,C[C@H](CO)N1C[C@H](C)[C@H](CN(C)C(=O)C2CCC2)Oc2ncc(C3=CCCC3)cc2C1=O,inactive: 21.6% [at 16.7 µM]
2,O=C(N/N=C/c1cccc(F)c1)c1csc2c1CCCC2,inconclusive: 94.6%
3,COc1ccc(S(=O)(=O)N(CC(=O)Nc2cc(C)on2)Cc2ccccc2)cc1,inconclusive: 91.8%
4,O=C(Cc1cccc([N+](=O)[O-])c1)Nc1cccc(C(=O)N2CCCC2)c1,inactive: -6.36%
5,O=C(CN1C(=O)c2ccccc2S1(=O)=O)NCCSCc1ccccc1Cl,inactive: 2%
6,O=C(CC(=O)Nc1ccc(Cl)cc1)N/N=C\c1cccc(F)c1,inactive: -4.39%
7,O=C(C[C@@H]1C[C@H]2c3cc(NC(=O)Nc4ccccc4)ccc3O[C@H]2[C@H](CO)O1)NCc1cccc(F)c1,inactive: 10.8% [at 16.7 µM]
8,C[C@@H]1CN([C@H](C)CO)C(=O)c2cccc(NS(C)(=O)=O)c2O[C@@H]1CN(C)Cc1ccc(C(F)(F)F)cc1,inconclusive: 90.5% [at 16.7 µM]
9,O=S(=O)(Nc1ccncc1)c1ccc(Cl)cc1,inconclusive: 119%
10,Cc1cc(NC(=O)CSc2nc3c(sc4ccccc43)c(=O)n2CCCN2CCOCC2)n[nH]1,active: 178%
11,O=C(Nc1ccc(S(=O)(=O)NCCc2ccccc2)cc1)c1ccco1,active: 365%
12,C[C@H](CO)N1C[C@H](C)[C@H](CN(C)Cc2cccc(C(=O)O)c2)OCc2cnnn2CCCC1=O,inactive: 7.44% [at 16.7 µM]
13,O=C(NCCCn1ccnc1)c1cc(-c2ccccc2)on1,inconclusive: 98.4%
14,Cc1noc(C)c1S(=O)(=O)N(C)C[C@@H]1Oc2c(NC(=O)C3CCOCC3)cccc2C(=O)N([C@@H](C)CO)C[C@@H]1C,inconclusive: 95.6% [at 16.7 µM]
15,COc1ccc(NC(=O)CCNS(=O)(=O)c2cc(Br)ccc2Br)cc1S(N)(=O)=O,inconclusive: 94.5%
16,COc1ccc(NS(=O)(=O)c2cc(N)ccc2N2CCOCC2)cc1,inconclusive: 128%
17,C[C@@H]1CN([C@@H](C)CO)C(=O)c2cccc(NC(=O)c3cnccn3)c2O[C@H]1CN(C)Cc1ccc(C(F)(F)F)cc1,active: 152% [at 16.7 µM]
18,Cc1nc2ccccc2n1S(=O)(=O)c1ccc(F)cc1,inconclusive: 136%
19,Cc1ccc(-c2n[nH]c(=O)c3ccccc23)cc1S(=O)(=O)NCCN1CCOCC1,inconclusive: 174%
20,CCOc1cc(C=NN2CCCCCC2)ccc1O,inactive: -1.88%
21,O=C(Nc1ccc(F)cc1)C1CC(=O)n2ncnc2N1 (stereo unspecified),inactive: -7.94%
22,COc1ccccc1N1CCN(S(=O)(=O)c2ccc(F)cc2)CC1,inconclusive: 134%
23,Cc1ccsc1C1Nc2ccc3ncccc3c2C2=C1C(=O)CC(C)(C)C2 (stereo unspecified),active: 95.3%
